Results: US11542261B2, “Substituted Imidazo[1,2-a]-pyridines as IRAK 1/4 and FLT3 inhibitors” (CHILDREN'S HOSPITAL MEDICAL CENTER, priority 2016, dated 2023)

Test system: Hep G2 cells
Assay: Inhibitory activity against Hep G2 cells
Format: cell-based
Conditions: Hep G2 cells (liver cancer); data not shown
From the text: Hep G2 were purchased from ATCC and cultured in DMEM+sodium pyruvate with 10% FBS and 1% penicillin-streptomycin.

Structure (SMILES)	concentration without any inhibitory activity
Clc1ccc2ncc(-c3cccc(NC4CCNCC4)n3)n2c1 [Compound I-2, 6-(6-chloroimidazo[1,2-a]pyridin-3-yl)-N-(piperidin-4-yl)pyridin-2-amine]	> 10 µM
COc1cc2ncc(-c3cccc(NC4CCNC4)n3)n2cc1-c1cnn(C)c1 (centres unmarked) [Compound I-24, 6-(7-methoxy-6-(1-methyl-1H-pyrazol-4-yl)imidazo[1,2-a]pyridin-3-yl)-N-(pyrrolidin-3-yl)pyridin-2-amine]	> 10 µM
